The other results are listed elsewhere or left out.
B1: PhoQ; a variant is named by its letters at X, in order, P23837 (parent)
chain: MKKLLRLFFPLSLRVRFLLATAAVVLVLSLAYGMVALIGYSVSFDKTTFRLLRGESNLFYTLAKWENNKLHVELPENIDKQSPTMTLIYDENGQLLWAQRDVPWLMKMIQPDWLKSNGFHEIEADVNDTSLLLSGDHSIQQQLQEVREDDDDAEMTHSVAVNVYPATSRMPKLTIVVVDTIPVELKSSYMVWSWFIYVLSANLLLVIPLLWVAAWWSLRPIEALAKEVRELEEHNRELLNPATTRELTSLVRNLNRLLKSERERYDKYRTTLTDLTHSLKTPLXXLQXXLRSLRSEKMSVSDAEPVMLEQISRISQQIGYYLHRASMRGGTLLSRELHPVAPLLDNLTSALNKVYQRKGVNISLDISPEISFVGEQNDFVEVMGNVLDNACKYCLEFVEISARQTDEHLYIVVEDDGPGIPLSKREVIFDRGQRVDTLRPGQGVGLAVAREITEQYEGKIVAGESMLGGARMEVIFGRQHSAPKDE

Variants of: B1
Assay: enrichment ratio after two sorts for PhoP signalling (ratio (wild type AVST 3.29)); higher = more functional
Settings: with PhoP (E. coli)

Variant | enrichment ratio
DCAS | ≤ 0.25
GKFD | 2.13
SVLE | 1.71
SYCN | ≤ 0.25
GGYQ | ≤ 0.25
FERV | ≤ 0.25
NHHY | ≤ 0.25
KCGP | ≤ 0.25
IWPN | ≤ 0.25
QDCQ | ≤ 0.25
RDTF | ≤ 0.25
EVPY | ≤ 0.25
FKRH | ≤ 0.25
GNEF | ≤ 0.25
WHHR | ≤ 0.25
GNYK | 1.18
TCVT | ≤ 0.25
GLAE | ≤ 0.25
TIPT | ≤ 0.25
VYPF | 1.11
MTLH | ≤ 0.25
HHEQ | ≤ 0.25
AWSN | ≤ 0.25
GWIF | ≤ 0.25
GVGS | ≤ 0.25
REAH | 4.16

Variant | enrichment ratio
FLKS | ≤ 0.25
GDRQ | ≤ 0.25
IPQK | ≤ 0.25
SSRQ | ≤ 0.25
GMQW | ≤ 0.25
YFCH | ≤ 0.25
YCGR | ≤ 0.25
LRCT | ≤ 0.25
QYFF | ≤ 0.25
PYWM | ≤ 0.25
EFSY | ≤ 0.25
MRQP | 0.285
YFQP | ≤ 0.25
SEYQ | ≤ 0.25
VTMP | ≤ 0.25
HQNT | ≤ 0.25
YPPK | ≤ 0.25
EMIP | ≤ 0.25
HQKH | ≤ 0.25
QVLM | ≤ 0.25
YLKS | ≤ 0.25
RMYN | ≤ 0.25
FMFN | ≤ 0.25
TFRS | ≤ 0.25
RSDR | ≤ 0.25
FECT | 5.14

Variant | enrichment ratio
GIMS | 0.324
IHYK | ≤ 0.25
DYRT | ≤ 0.25
KICR | ≤ 0.25
WTVA | ≤ 0.25
QKCI | ≤ 0.25
PTDL | ≤ 0.25
ATPV | 6.48
GGID | ≤ 0.25
ICYL | ≤ 0.25
RHTF | ≤ 0.25
IRFK | ≤ 0.25
ANDS | ≤ 0.25
YCAG | ≤ 0.25
WDYT | ≤ 0.25
HNGW | ≤ 0.25
AERI | ≤ 0.25
FEFT | ≤ 0.25
SAQA | ≤ 0.25
RLAL | ≤ 0.25
MWMR | ≤ 0.25
KVVV | ≤ 0.25
QEQD | ≤ 0.25
ECLD | ≤ 0.25

Source: a collection of fitness landscapes (doi:10.1126/science.1257360)
